From the supplement of paper PMC11417369
The list shows a part of the results.

Tested on: PfAP2-HC AP2 domain (GST-tagged)
Test: gcPBM binding intensity (ln(normalized median fluorescence intensity)); higher = stronger DNA binding
In short: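 Binding intensity is the highest Masliner-normalised natural-log median intensity over replicate spots in either probe orientation. To obtain it, GST-tagged P. falciparum DNA-binding domains made in E. coli were incubated for 1 h on an Agilent 4 × 180k array of primer-extended double-stranded 36-bp intergenic genomic probes plus negative controls. Detection used Alexa488 anti-GST antibody with scanning at 488 nm.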

| Sequence | gcPBM binding intensity (ln) |
| --- | --- |
| TTTTTTTTTTTTTGTAGTACATACTATTTTATTAAT [XGTACX_site950] | 9.58 |
| TATATATGCATTAAAGTGTTTTTTTTTTTTTTTTTT [CACACA_negctrl_site1353] | 9.55 |
| TGTATAACCATAAATTGTACAGAAAAAAGTATAAAA [XGTACX_site1493] | 9.65 |
| TTAAAAAATATATACGTTGATATAATACAACTTGAC [CACACA_negctrl_site1551] | 9.58 |
| ATGTGTATATGTTAATGTACAAATTTTGAAAATGCC [XGTACX_site2685] | 9.86 |
| ATTTTTTTTTTTTATGGTACACACACGCGTATGGTT [XGTACX_site3888] | 10.6 |
| CATCTGGTATCTAATAGTACATATATATAATATCTT [XGTACX_site2774] | 9.67 |
| AACAAAAGAAAAAAATATATATATTCGTCCTATTTT [CACACA_negctrl_site444] | 9.62 |
| TTTCAACTTTTGTCATGTACACATAATTTTATTGCA [XGTACX_site6701] | 9.86 |
| ATTTATTTATCAAATATTATCTTAAAAAAAAAAGAA [CACACA_negctrl_site1345] | 9.18 |
| TAATTAAATACATTAACACACACACTAATATATACA [CACACA_site8938] | 10.3 |
| TTCCTGTTAATTACAACACACAATTTTTATTTTATG [CACACA_site779] | 10.1 |
| TACCAAAAAAAAAAAAATAAAAATAAAAAAAAAAAT [CACACA_negctrl_site1714] | 9.47 |
| AAAATAAAAATAAAAGCACACATAAATATATATATA [CACACA_site8409] | 9.94 |
| CTTTATTATAAGATTACACACATGTCTTATAATTTA [CACACA_site5715] | 9.98 |
| TAAAAGTTTTTATACATACACACCTATAAATTAAGT [CACACA_site2446] | 9.78 |
| TAACTATTATAAAAATGTACAAATGAAAATATTTTT [XGTACX_site1438] | 9.59 |
| ATTTTTTTGGTAATTTGTACATAATATATACATAAT [XGTACX_site3742] | 9.68 |
| AAAATTAAAACCTACACACACATTTAAAAAAAAAAA [CACACA_site3068] | 10.1 |
| TTTTTTTTTTTTACATGTACTTATTTTAAATATAAA [XGTACX_site805] | 9.71 |
| TATATTTATTTAAAAACATGCATTTTTTTTTTCCGT [TGCATGCA_site44] | 9.53 |
| TATATTATAGGTTGTGTACACATATTATATAGTACT [CACACA_site4583] | 9.75 |

| Sequence | gcPBM binding intensity (ln) |
| --- | --- |
| ATATATTTATAGACTTGTACATATATATACGATATA [XGTACX_site8890] | 9.59 |
| AAGGCATGACTATCTGCACACATAAAAATAAGAAAT [CACACA_site8180] | 9.92 |
| AATTTTTTTTTTTTGTGTCCTCATAATTCTTCATTC [XGTACX_site5042] | 9.59 |
| TAAACATAATAATATACACACATATATTGATATATA [CACACA_site2144] | 9.76 |
| TAAAAAAAAATATAATGTACGTATAAATATATATTA [XGTACX_site5085] | 9.66 |
| ATACACATAACATATATATATATATATATATATATC [CACACA_negctrl_site278] | 9.93 |
| TATATATATATAAACGCATGTAATTTATACACACAT [TGCATGCA_site946] | 9.81 |
| ATCTTTCCTTTTGCATGTACATATGGAAATACTTTT [XGTACX_site6995] | 9.83 |
| ATAATTAAGTTATGTGTGCACTGTTAAAAATAAATG | 9.97 |
| TTTTTTATTTTTTACATATTTAGCTCATATTTATAT [GTGCAC_negctrl_site491] | 9.83 |
| TTTTATGATATTTACACACAAACGTGAGATAGCTCA [CACACA_site2311] | 9.6 |
| AATATAATATCTATAATATAAAAAAAACAAAAAAAA [CACACA_negctrl_site875] | 9.67 |
| AAAATATGTTAATATTGTACTTAAATAAAAAAAATA [XGTACX_site7152] | 9.56 |
| ATTCTTAAAATAAAATGTACGAAAAAAAAAAAAAAA [XGTACX_site1657] | 9.32 |
| TTTAAAAAATTATATTCACACACATACACATATATA [CACACA_site8076] | 10.1 |
| ATAAATCGATAAAATATATGCTACATGAATAAATAA [XGTACX_negctrl_site604] | 9.75 |
| ATATTTTTATATAATGAACACACATATTATATCATT [CACACA_site8446] | 9.81 |
| TAAAAGGATACATATACACACATATATATATATATA [CACACA_site2791] | 9.85 |
| TTCTTCAACAAAAAAATAAAAATAAAATAATAAAAA [GTGCAC_negctrl_site619] | 9.41 |
| TATTTTACATAAAAGAAAAAAAAAAAAAAAAAAAAA [CACACA_negctrl_site1460] | 8.78 |
| TTTATAATAAAAAATACATGCAGTTATATATAATAA [TGCATGCA_site654] | 9.56 |
| ATATTGAAAATTTGAAGTACATCTAAATATATTATT [XGTACX_site7817] | 9.37 |

| Sequence | gcPBM binding intensity (ln) |
| --- | --- |
| TATATATAAATAAACACACACAAATATAATAAAAAA [CACACA_site3526] | 10.9 |
| ATCCGTGTCTGAAATACACACATGACAATGTGAATG [CACACA_site6556] | 9.7 |
| ATAATGTGTTTGGTATTCTTGATAGATAGTTTTGTG [CACACA_negctrl_site68] | 9.82 |
| CCTTCCTTGAATTTTACATGCAAAAAATTATAAAAC [TGCATGCA_site663] | 9.34 |
| TATATATTATATATTTGTACATATATATAAAAACTT [XGTACX_site449] | 9.47 |
| TTTTTTCAATATTATATCCAAAAATATTTGTAAATA [TGCATGCA_negctrl_site596] | 9.31 |
| TTATTAAAATATACATTTGAAAGTAATCTTATTTAA [XGTACX_negctrl_site431] | 9.22 |
| ATTTTTATTTTTTTTGTGCACATTTTCATTTTCTAT [GTGCAC_site9580] | 9.94 |
| TATAAAAAAATAATAAAATAATAAAATATATAAATA [TGCATGCA_negctrl_site394] | 9.6 |
| TTTTAAAAGGTAAAATGTACATATATAATATATACA [XGTACX_site1222] | 9.56 |
| ATTCTATTATCCTTTGCACACAAAATAAATGAAAAA [CACACA_site3030] | 9.75 |
| TAATACTTAGAGAAAAGTACGTATGAACTTATGTAA [XGTACX_site5504] | 9.59 |
| TTTTTTTTTTTTTTTTGTACTTATAAAATAACATGT [XGTACX_site134] | 9.03 |
| TATTTAAATACTGACGCATGCATAAGGAGTAATAGT [TGCATGCA_site465] | 9.82 |
| AAACATTTATGAAGGTGTACAAAAATGAATTAAAAA [XGTACX_site7035] | 9.88 |
| AGTCCTTACACATATATTAAATATGTGTATATATAT [XGTACX_negctrl_site336] | 9.98 |
| TTTTGTTTAGTGTATTGTACAATATATCTTTATTTT [XGTACX_site5163] | 9.83 |
| TATTAATACGGACACACACACACACTAGATAAAATA [CACACA_site4295] | 10.8 |
| AAAAAAAAAAAAAAAAGTACATATATATATATAATT [XGTACX_site4437] | 9.46 |
| CTTTCAAAATTATTTATAGTATCTCATATTTTAGTA [XGTACX_negctrl_site72] | 9.35 |
| TTTATTAATAAAAAGGTGCAATCAGGAAAAATTATC [GTGCAC_site9626] | 9.56 |
| ATCCTTTATAAATAAGTGCATATAAAAAATAATATT [GTGCAC_site9759] | 9.49 |

| Sequence | gcPBM binding intensity (ln) |
| --- | --- |
| ACACATATGTATATATGTACTTATATATATATATAT [XGTACX_site8632] | 9.71 |
| TTTTAGCTATTTTAATATAATGAAGCAAAAAATAAA [TGCATGCA_negctrl_site576] | 9.3 |
| ATAATAAATTCTACGCGTACAAAACCATGAACATTA [XGTACX_site7505] | 9.79 |
| ATGTATTACTTAAATATATGAAACATATTACTTTTA [CACACA_negctrl_site496] | 9.61 |
| AATTATATATAAAAAGTGCAAAACGATAATTCATCA | 9.92 |
| AATATATATATATTATGTACACATAGAAATATATTA [XGTACX_site3874] | 9.62 |
| CATACATACAAACACACACACATATAAATACATACA [CACACA_site4625] | 11.2 |
| ACATTGTTGGTGTTAGTGCATTGGTAAATATTATAT | 9.85 |
| AAAAAAAAAAAAAAAACACACATATCTGTATTTATA [CACACA_site5760] | 9.75 |
| AAAAAAAAAATTTTCGTGCACATAAGAAAATTTAAA [GTGCAC_site9788] | 9.58 |
| ATAGTATATCAAAATTTGTAAATCATTCTCAATAAA [CACACA_negctrl_site430] | 9.36 |
| ACCTACATACATATGTGTACTTATTTGTATTCACTG [XGTACX_site7124] | 10.2 |
| TTTATAAACAAATGAACACACAAACATATTTATATA [CACACA_site7478] | 9.91 |
| ATAATATATGAAAAAACGATTTTTTCATTTTAAATA [XGTACX_negctrl_site146] | 9.51 |
| CACACGTAAAAGTATAATATAAAAAAGGTATACACT [CACACA_negctrl_site127] | 9.79 |
| TATTTAAAGATATATACACACATTTGATATTATTAT [CACACA_site6509] | 9.74 |
| TTATTTGAACAATATGCACACATTTTATTTATTTTA [CACACA_site3420] | 9.84 |
| TTAATGTTGTATGGTTGTACAATAAGCCCCTTTTAA [XGTACX_site2484] | 9.54 |
| TATATATATATGTGCACACATAATAAAAAAAAAAAT [CACACA_site3831] | 10.2 |
| TATAAAGCATATTAAAGTACTTATTTTCCTTTTTCT [XGTACX_site8892] | 9.56 |
| TTTTATTTTATTCTTAAATAAGTATTATAAAATATG [XGTACX_negctrl_site201] | 9.2 |
